The results in this text go back to paper PMC4336329 (PLoS ONE, 2015).

The structures appear in SMILES notation. The whole screen tested about 310,000 compounds, of which about 14,000 (4.5%) showed an effect of 50% or more. The effect is printed as a negative number. The list shows a part of the results.
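Further: peak tail current of the secondary pulse compared with the same well before compound.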

The target in this test is human ether-à-go-go-related gene (hERG) potassium channel (human, UniProt Q12809). Nature of the test: primary screen, population patch clamp on CHO cells stably expressing hERG.
Chain of human ether-à-go-go-related gene (hERG) potassium channel (Q12809 whole entry, looked up): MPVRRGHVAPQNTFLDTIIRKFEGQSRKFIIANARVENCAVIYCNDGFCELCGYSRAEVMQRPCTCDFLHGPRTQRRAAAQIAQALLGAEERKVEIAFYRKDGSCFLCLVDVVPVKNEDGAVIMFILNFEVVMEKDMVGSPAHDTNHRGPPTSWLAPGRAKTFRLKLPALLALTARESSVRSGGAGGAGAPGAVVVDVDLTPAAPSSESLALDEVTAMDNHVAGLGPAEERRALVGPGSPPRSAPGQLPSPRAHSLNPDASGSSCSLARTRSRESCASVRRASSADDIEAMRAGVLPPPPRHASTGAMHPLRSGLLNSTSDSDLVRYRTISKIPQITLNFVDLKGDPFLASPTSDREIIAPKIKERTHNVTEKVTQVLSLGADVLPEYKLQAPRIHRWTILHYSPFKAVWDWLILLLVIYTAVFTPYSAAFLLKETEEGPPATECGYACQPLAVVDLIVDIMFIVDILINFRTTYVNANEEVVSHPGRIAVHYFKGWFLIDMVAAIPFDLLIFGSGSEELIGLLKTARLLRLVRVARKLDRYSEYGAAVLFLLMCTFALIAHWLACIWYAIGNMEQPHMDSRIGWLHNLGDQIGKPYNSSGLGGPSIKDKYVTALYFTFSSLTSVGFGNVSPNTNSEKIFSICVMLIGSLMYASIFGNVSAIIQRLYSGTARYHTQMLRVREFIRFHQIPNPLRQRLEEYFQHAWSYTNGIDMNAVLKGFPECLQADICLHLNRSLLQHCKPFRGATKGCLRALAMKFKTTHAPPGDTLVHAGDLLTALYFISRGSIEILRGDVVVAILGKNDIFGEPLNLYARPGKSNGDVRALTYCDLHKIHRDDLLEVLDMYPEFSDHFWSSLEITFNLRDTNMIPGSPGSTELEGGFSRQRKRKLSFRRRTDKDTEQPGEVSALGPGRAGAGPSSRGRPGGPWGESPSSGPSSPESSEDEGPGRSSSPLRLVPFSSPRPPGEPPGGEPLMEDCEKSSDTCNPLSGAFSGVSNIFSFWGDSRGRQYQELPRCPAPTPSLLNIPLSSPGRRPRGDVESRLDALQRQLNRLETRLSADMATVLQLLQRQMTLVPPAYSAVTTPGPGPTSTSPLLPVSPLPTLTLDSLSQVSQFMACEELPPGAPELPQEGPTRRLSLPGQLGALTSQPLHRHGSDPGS
With `CC(=O)OCCn1c(C)[n+](CCOC(C)=O)c2cc(Cl)c(Cl)cc21.[I-]`, the “hERG current change (%, negative = inhibition) at 10uM” value was 14.7%.
As to `Nc1cc(-c2ccccc2)ccc1O`, the “hERG current change (%, negative = inhibition) at 10uM” value worked out at 22.5%.
For `c1coc(CNc2c3c(nc4ncnn24)CCCC3)c1`, the “hERG current change (%, negative = inhibition) at 10uM” value is listed as -27.9%.
With `COc1ccc(C(CC(=O)O)NC(=O)COc2ccccc2OC)cc1OC` (stereo not shown), the “hERG current change (%, negative = inhibition) at 10uM” value is 8.83%.
In the case of `CC(=O)c1cnc(Nc2nc(C)c3ccc(C)cc3n2)nc1C` it was 4.02%; in that of `Cc1ccn2c(=O)cc(C)nc2c1`, 24.5%.
In the case of `CC1CCN(C(=O)Cn2nnc(-c3ccccc3)n2)CC1` it was 9.31%; in that of `CCOC(=O)c1sc(Nc2cccc(Cl)c2)nc1C`, 2.03%; in that of `COc1ccc(CCNC(=O)/C=C/C(=O)O)cc1OC`, 12.7%.
Turning to `CCn1c(SCC(=O)c2[nH]c(C)c(C(C)=O)c2C)nnc1-c1ccccc1`, the “hERG current change (%, negative = inhibition) at 10uM” value is on record as -20.2%.
In the case of `COc1cc(CCC(=O)OCC(=O)Nc2ccc(C(N)=O)cc2)cc(OC)c1OC` it was 4.88%.
In the case of `Cn1c(=S)[nH]c2cccnc21`, the “hERG current change (%, negative = inhibition) at 10uM” value is reported as 15.3%.
On to `CC(=O)Nc1ccc2sc(C)nc2c1`, for which the “hERG current change (%, negative = inhibition) at 10uM” value is recorded as -1.95%.
In the case of `COc1ccccc1/C=N/NC(=S)Nc1cccnc1` it was 23.3%; in that of `Cc1cc(C(=O)CCC(=O)N(C)CC(=O)Nc2c(Cl)cccc2Cl)c(C)s1`, -3.96%; in that of `Cc1ccc(NC(=O)/C=C/c2ccc3c(c2)OCO3)nc1`, -0.304%.
In the case of `N#Cc1ccc(OCC(=O)Nc2cc(S(=O)(=O)N3CCCCC3)ccc2N2CCCCC2)cc1` it was -13.3%; in that of `O=C(NCc1ccccc1)C(=O)NCC1OCCN1C(=O)c1cccs1` (stereo not shown), -65.3%; in that of `CCS(=O)(=O)N1CCN(S(=O)(=O)c2ccc3ccccc3c2)CC1`, 16.2%.
Regarding `CC1(C)CC(NC(=S)NCc2ccco2)CC(C)(C)N1`, the “hERG current change (%, negative = inhibition) at 10uM” value amounted to 18.9%.
In the case of `CSc1nn(CCc2ccncc2)c(=S)s1` it was 8.17%.
Regarding `Cc1c(Cl)c([N+](=O)[O-])nn1CC(=O)NCC1CCCO1` (stereo not shown), the “hERG current change (%, negative = inhibition) at 10uM” value worked out at 27%.
Take `CCn1c(CCNC(=O)c2ccc(OC)c(OC)c2)nc2ccccc21`: the “hERG current change (%, negative = inhibition) at 10uM” value was -43.9%.
In the case of `CC(OC(=O)/C=C/c1ccc2ccccc2n1)C(=O)N(C)c1ccccc1` (stereo not shown) it was 6.6%.
In the case of `CC(C)NC(=O)C1(S(=O)(=O)c2ccccc2)CC=CC1` it was 0.292%.
In the case of `O=C(Cc1cccc(NC(=O)C2CCCN(C(=O)C3CCCCC3)C2)c1)Nc1cccc(C(=O)N2CCCC2)c1` (stereo not shown) it was -36.8%; in that of `COc1ccccc1-n1c(-c2ccccc2)n[nH]c1=S`, 23.3%; in that of `CCOC(=O)c1cnc(N)nc1C(F)(F)F`, -0.475%.
For `Cc1ccc2c(c1)N(C(=O)CCC(=O)NCc1ccccc1)CC(C)O2` (stereo not shown), the “hERG current change (%, negative = inhibition) at 10uM” value is listed as 2.08%.
In the case of `O=C(c1ccc(-c2ccccc2)cc1)N1CCN(c2ccccn2)CC1` it was -36.4%.
In the case of `CC(=O)c1ccc(Nc2cc(C)nc3ccc(C)cc23)cc1` it was -74.5%; in that of `CCOc1ccc(NC(=O)CN(C)C(=O)c2ccc(=O)[nH]c2)cc1OCC`, 5.98%.
In the case of `Br.CCCCCCC1CC(CSC(=N)N)OC1=O` (stereo not shown) it was -52.1%.
As to `CCN(C1CCCCC1)S(=O)(=O)CCNC(=O)c1ccccc1`, the “hERG current change (%, negative = inhibition) at 10uM” value is -12%.
In the case of `COC(=O)c1ccc[n+](CC(=O)Nc2ccc(OC(F)F)cc2)c1.[Cl-]` it was -26%; in that of `O=C(/C=C/c1ccccc1)NC(=S)NNC(=O)Cc1cccs1`, 22.5%; in that of `Cc1csc(NC(=O)C2CCCCC2C(=O)O)n1` (stereo not shown), 18.7%.
In the case of `CCCn1c2ccccc2c2cnn(CC(=O)NCCCOC)c(=O)c21` it was -1.43%; in that of `CCCCN1C(Nc2ccccc2)=NC[C@@H]1Cc1ccccc1`, -66.1%; in that of `O=C(Nc1cccc(Cl)c1)c1ccc(OC(=S)N2CCOCC2)cc1`, 30%.
In the case of `COC(=O)[C@H](CC(C)C)NC(=O)N1CCCCC1C` (stereo partly shown) it was 9.52%; in that of `NC(=O)CSc1nccn1Cc1ccc(Cl)cc1`, 19.1%; in that of `Cc1nnc(NC(=O)CSc2nc3ccccc3[nH]2)s1`, 34.1%.
Take `COc1ccccc1C(=O)Nc1nc(-c2ccc(S(=O)(=O)N3CCOCC3)cc2)cs1`: the “hERG current change (%, negative = inhibition) at 10uM” value came to 9.59%.
Turning to `CC(C)(C)OC(=O)CN1C(=O)NC(Cc2c[nH]c3ccccc23)C1=O` (stereo not shown), the “hERG current change (%, negative = inhibition) at 10uM” value is given as 12.8%.
In the case of `CC(CCc1ccccc1)NCC(O)c1cccc([N+](=O)[O-])c1.Cl` (stereo not shown) it was -56.2%.
